# Results from the supplement of paper PMC8728848.
# Some of the results follow.
# B1: PX9961U-pdi-543-24-543 (Parabacteroides distasonis) (protein)
# chain: EEPVGEFLPGQVESEENIEGIVTGAYAVLDGYYASDAINSGCSNWQFGDVVSDDAYKGGGGTGDQNQIHLMEIFNANPTGIDFEARWAALYEGIKRCNQAIRLLNGSEVKNKEQRLAEMRFLRGHYYFNLKIIYNQIPWIDETLVDPNEYNKKSNIEFSSDQLWEKILEEFSAAYKVLPESQADYGRPTKMAARAYMAKVYLYQSKWKECLEACDEVIQSGKYELFPDFRNVFLPENDNCSEIIFAIQLSINDGSPNNENGSYGDRLLPPGGPYPVYGFLRPTQNLVNAYKTDVKGLPYNDGKDVSENDYVDVRLDHTLARPNIPFMDVQLYDWTPREASVYGPYSPKKRLVSLNSTYYSPIWPYVNALNFYVIRYADLLLWRAEAAIETGDLETGRKYINMIRERAKNTQHVKTMDQSQDAANYKVGVYDEPFKSKNEAVQALRMERRLEMAHEGIRFFDLVRWGVADEVINAYIAKEKVFRSHLQNAHFVKGKHEYFPIPQSMIDICGTEVMKQNPGY
# Legend:
# Test in all cases: glycan array binding signal (z-score within array); higher = stronger binding
# Conditions in all cases: glycan notation: IUPAC condensed, linker removed
# [1] = molecular target: Neu5Ac(a2-3)Gal(b1-3)GlcNAc(b1-2)Man(a1-3)[GlcNAc(b1-4)][Neu5Ac(a2-3)Gal(b1-3)GlcNAc(b1-2)Man(a1-6)]Man(b1-4)GlcNAc(b1-4)GlcNAc
# Outline: (§1)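 The binding signal is a Z-score computed within each array and averaged over linkers. Arrays of the same protein sequence at different concentrations or buffers were also averaged together. Data originate from 3228 arrays in the Consortium for Functional Glycomics database, kept only where the protein sequence was available.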
# [2] = molecular target: Neu5Ac(a2-3)Gal(b1-3)GlcNAc(b1-2)Man(a1-3)[Neu5Ac(a2-3)Gal(b1-3)GlcNAc(b1-2)Man(a1-6)]Man(b1-4)GlcNAc(b1-4)GlcNAc
# Outline: as §1
# [3] = molecular target: Neu5Ac(a2-3)Gal(b1-3)GlcNAc(b1-3)Gal(b1-3)GlcNAc
# Outline: as §1
# [4] = molecular target: Neu5Ac(a2-3)Gal(b1-3)GlcNAc(b1-3)Gal(b1-4)GlcNAc
# Outline: as §1
# [5] = molecular target: Neu5Ac(a2-3)Gal(b1-3)GlcNAc(b1-3)GalNAc
# Outline: as §1
# [6] = molecular target: Neu5Ac(a2-3)Gal(b1-3)GlcNAc(b1-4)Gal(b1-4)Glc
# Outline: as §1
# [7] = molecular target: Neu5Ac(a2-3)Gal(b1-3)GlcNAc(b1-6)GalNAc
# Outline: as §1
# [8] = molecular target: Neu5Ac(a2-3)Gal(b1-3)GlcNAc6S
# Outline: as §1
# [9] = molecular target: Neu5Ac(a2-3)Gal(b1-3)[Fuc(a1-4)]GlcNAc
# Outline: as §1
# [10] = molecular target: Neu5Ac(a2-3)Gal(b1-3)[Fuc(a1-4)]GlcNAc(b1-3)Gal(b1-3)[Fuc(a1-4)]GlcNAc
# Outline: as §1
# [11] = molecular target: Neu5Ac(a2-3)Gal(b1-3)[Fuc(a1-4)]GlcNAc(b1-3)Gal(b1-4)[Fuc(a1-3)]GlcNAc
# Outline: as §1
# [12] = molecular target: Neu5Ac(a2-3)Gal(b1-3)[GlcNAc(b1-6)]GalNAc
# Outline: as §1
# [13] = molecular target: Neu5Ac(a2-3)Gal(b1-3)[Neu5Ac(a2-6)]GalNAc
# Outline: as §1
# [14] = molecular target: Neu5Ac(a2-3)Gal(b1-3)[Neu5Ac(a2-6)]GlcNAc(b1-3)[Fuc(a1-3)[Gal(b1-4)]GlcNAc(b1-6)]Gal(b1-4)Glc
# Outline: as §1
# [15] = molecular target: Neu5Ac(a2-3)Gal(b1-3)]Neu5Ac(a2-3)Gal(b1-4)]GlcNAc
# Outline: as §1
# Neu5Ac(a2-3)Gal(b1-4)Glc = molecular target: Neu5Ac(a2-3)Gal(b1-4)Glc
# Outline: as §1
# [16] = molecular target: Neu5Ac(a2-3)Gal(b1-4)GlcNAc
# Outline: as §1
# [17] = molecular target: Neu5Ac(a2-3)Gal(b1-4)GlcNAc(b1-2)Man
# Outline: as §1
# [18] = molecular target: Neu5Ac(a2-3)Gal(b1-4)GlcNAc(b1-2)Man(a1-3)[GlcNAc(b1-4)][Neu5Ac(a2-3)Gal(b1-4)GlcNAc(b1-2)Man(a1-6)]Man(b1-4)GlcNAc(b1-4)GlcNAc
# Outline: as §1
# [19] = molecular target: Neu5Ac(a2-3)Gal(b1-4)GlcNAc(b1-2)Man(a1-3)[Neu5Ac(a2-3)Gal(b1-4)GlcNAc(b1-2)Man(a1-6)]Man(b1-4)GlcNAc(b1-4)GlcNAc
# Outline: as §1
# [20] = molecular target: Neu5Ac(a2-3)Gal(b1-4)GlcNAc(b1-2)Man(a1-3)[Neu5Ac(a2-3)Gal(b1-4)GlcNAc(b1-2)Man(a1-6)]Man(b1-4)GlcNAc(b1-4)[Fuc(a1-6)]GlcNAc
# Outline: as §1
# [21] = molecular target: Neu5Ac(a2-3)Gal(b1-4)GlcNAc(b1-2)Man(a1-3)[Neu5Ac(a2-6)Gal(b1-4)GlcNAc(b1-2)Man(a1-6)]Man(b1-4)GlcNAc(b1-4)GlcNAc
# Outline: as §1
# [22] = molecular target: Neu5Ac(a2-3)Gal(b1-4)GlcNAc(b1-2)[Neu5Ac(a2-3)Gal(b1-4)GlcNAc(b1-4)]Man(a1-3)[GlcNAc(b1-4)][Neu5Ac(a2-3)Gal(b1-4)GlcNAc(b1-2)[Neu5Ac(a2-3)Gal(b1-4)GlcNAc(b1-6)]Man(a1-6)]Man(b1-4)GlcNAc(b1-4)GlcNAc
# Outline: as §1
# [23] = molecular target: Neu5Ac(a2-3)Gal(b1-4)GlcNAc(b1-2)[Neu5Ac(a2-3)Gal(b1-4)GlcNAc(b1-4)]Man(a1-3)[GlcNAc(b1-4)][Neu5Ac(a2-3)Gal(b1-4)GlcNAc(b1-4)Man(a1-6)]Man(b1-4)GlcNAc(b1-4)GlcNAc
# Outline: as §1
# [24] = molecular target: Neu5Ac(a2-3)Gal(b1-4)GlcNAc(b1-2)[Neu5Ac(a2-3)Gal(b1-4)GlcNAc(b1-6)]Man(a1-6)[Neu5Ac(a2-3)Gal(b1-4)GlcNAc(b1-2)Man(a1-3)]Man(b1-4)GlcNAc(b1-4)GlcNAc
# Outline: as §1
# [25] = molecular target: Neu5Ac(a2-3)Gal(b1-4)GlcNAc(b1-2)[Neu5Ac(a2-3)Gal(b1-4)GlcNAc(b1-6)]Man(a1-6)[Neu5Ac(a2-3)Gal(b1-4)GlcNAc(b1-2)Man(a1-3)][GlcNAc(b1-4)]Man(b1-4)GlcNAc(b1-4)GlcNAc
# Outline: as §1
# [26] = molecular target: Neu5Ac(a2-3)Gal(b1-4)GlcNAc(b1-3)Gal
# Outline: as §1
# [27] = molecular target: Neu5Ac(a2-3)Gal(b1-4)GlcNAc(b1-3)Gal(b1-3)GlcNAc
# Outline: as §1
# [28] = molecular target: Neu5Ac(a2-3)Gal(b1-4)GlcNAc(b1-3)Gal(b1-4)GlcNAc
# Outline: as §1
# [29] = molecular target: Neu5Ac(a2-3)Gal(b1-4)GlcNAc(b1-3)Gal(b1-4)GlcNAc(b1-2)Man(a1-3)[Neu5Ac(a2-3)Gal(b1-4)GlcNAc(b1-3)Gal(b1-4)GlcNAc(b1-2)Man(a1-6)]Man(b1-4)GlcNAc(b1-4)GlcNAc
# Outline: as §1
# [30] = molecular target: Neu5Ac(a2-3)Gal(b1-4)GlcNAc(b1-3)Gal(b1-4)GlcNAc(b1-3)Gal(b1-4)GlcNAc
# Outline: as §1
# [31] = molecular target: Neu5Ac(a2-3)Gal(b1-4)GlcNAc(b1-3)Gal(b1-4)GlcNAc(b1-3)Gal(b1-4)GlcNAc(b1-2)Man(a1-3)[Neu5Ac(a2-3)Gal(b1-4)GlcNAc(b1-3)Gal(b1-4)GlcNAc(b1-3)Gal(b1-4)GlcNAc(b1-2)Man(a1-6)]GalNAc
# Outline: as §1
# [32] = molecular target: Neu5Ac(a2-3)Gal(b1-4)GlcNAc(b1-3)Gal(b1-4)GlcNAc(b1-3)GalNAc
# Outline: as §1
# [33] = molecular target: Neu5Ac(a2-3)Gal(b1-4)GlcNAc(b1-3)Gal(b1-4)GlcNAc(b1-3)[Neu5Ac(a2-3)Gal(b1-4)GlcNAc(b1-3)Gal(b1-4)GlcNAc(b1-6)]GalNAc
# Outline: as §1
# [34] = molecular target: Neu5Ac(a2-3)Gal(b1-4)GlcNAc(b1-3)Gal(b1-4)GlcNAc(b1-6)[Gal(b1-3)]GalNAc
# Outline: as §1
# [35] = molecular target: Neu5Ac(a2-3)Gal(b1-4)GlcNAc(b1-3)Gal(b1-4)[Fuc(a1-3)]GlcNAc
# Outline: as §1
# [36] = molecular target: Neu5Ac(a2-3)Gal(b1-4)GlcNAc(b1-3)GalNAc
# Outline: as §1
# [37] = molecular target: Neu5Ac(a2-3)Gal(b1-4)GlcNAc(b1-3)[Neu5Ac(a2-3)Gal(b1-4)GlcNAc(b1-6)]GalNAc
# Outline: as §1
binder,measurement,setting,value
B1,glycan array binding signal (z-score),[1],-0.396
same,glycan array binding signal (z-score),[2],-0.344
same,glycan array binding signal (z-score),[3],-0.431
same,glycan array binding signal (z-score),[4],-0.413
same,glycan array binding signal (z-score),[5],-0.356
same,glycan array binding signal (z-score),[6],-0.455
same,glycan array binding signal (z-score),[7],0.119
same,glycan array binding signal (z-score),[8],-0.398
same,glycan array binding signal (z-score),[9],-0.398
same,glycan array binding signal (z-score),[10],-0.321
same,glycan array binding signal (z-score),[11],-0.185
same,glycan array binding signal (z-score),[12],-0.378
same,glycan array binding signal (z-score),[13],-0.325
same,glycan array binding signal (z-score),[14],-0.31
same,glycan array binding signal (z-score),[15],-0.399
same,glycan array binding signal (z-score),Neu5Ac(a2-3)Gal(b1-4)Glc,-0.368
same,glycan array binding signal (z-score),[16],-0.314
same,glycan array binding signal (z-score),[17],-0.278
same,glycan array binding signal (z-score),[18],-0.394
same,glycan array binding signal (z-score),[19],-0.337
same,glycan array binding signal (z-score),[20],-0.23
same,glycan array binding signal (z-score),[21],-0.285
same,glycan array binding signal (z-score),[22],-0.408
same,glycan array binding signal (z-score),[23],-0.373
same,glycan array binding signal (z-score),[24],-0.223
same,glycan array binding signal (z-score),[25],-0.431
same,glycan array binding signal (z-score),[26],-0.257
same,glycan array binding signal (z-score),[27],-0.419
same,glycan array binding signal (z-score),[28],-0.403
same,glycan array binding signal (z-score),[29],-0.056
same,glycan array binding signal (z-score),[30],-0.466
same,glycan array binding signal (z-score),[31],-0.211
same,glycan array binding signal (z-score),[32],-0.376
same,glycan array binding signal (z-score),[33],0.127
same,glycan array binding signal (z-score),[34],-0.248
same,glycan array binding signal (z-score),[35],-0.34
same,glycan array binding signal (z-score),[36],-0.341
same,glycan array binding signal (z-score),[37],-0.48
